172 sequences from publication PMC10668032 can be followed below.

The other results are listed elsewhere or left out. At the low end of the ranking the order means little.

This assay addresses SIX1 homeodomain (reference allele) (UniProt Q15475). Kind of assay: universal protein binding microarray. To be noted: Universal all-10-mer PBM (8x60K, AMADID 030236), 300 nM GST-tagged protein, Alexa Fluor 488 anti-GST; buffer, salt, pH and temperature not stated; high values mean tight binding; most listed sequences are background and not binding sites; double strand, one strand shown.
Turning to ATCTTAGG, the binding signal is -0.0286 E-score.

On to CGTCGGAC, for which the binding signal is -0.119 E-score.

On to TCATTAGA, for which the binding signal was -0.0558 E-score.

As to CGCAGAGC, the binding signal is -0.246 E-score.

With ACCTTCCT, the binding signal was -0.0566 E-score.

As for ACGTAGAC, the binding signal was -0.183 E-score.

For the sequence AGGGTTAC, the binding signal is -0.109 E-score.

In the case of ATCCTCGA, the binding signal is 0.313 E-score.

Take AGTTCACG: the binding signal is -0.208 E-score.

Turning to GAAGCACC, the binding signal was -0.107 E-score.

As to GACTGCAC, the binding signal was -0.222 E-score.

On to AAAAGAGG, for which the binding signal is -0.128 E-score.

For AGGCCACG, the binding signal is -0.0865 E-score.

GCTCACTA: the binding signal is -0.0428 E-score.

Consider CAAAAGCC, for which the binding signal is -0.227 E-score.

Take ACAATGAT: the binding signal was 0.137 E-score.

Take GTTGACGA: the binding signal was -0.196 E-score.

In the case of ACATATCT, the binding signal turned out to be 0.233 E-score.

As to AAACCGTA, the binding signal was determined as 0.0539 E-score.

CATTCCCG: the binding signal was -0.156 E-score.

Consider AAGCGGCC, for which the binding signal was -0.26 E-score.

CGCAAACA: the binding signal was -0.105 E-score.

As for CCAATAAG, the binding signal was -0.174 E-score.

Regarding AGAAAGCG, the binding signal was -0.226 E-score.

Consider GAGCGTCA, for which the binding signal was -0.24 E-score.

As for AACCCGCT, the binding signal is -0.0842 E-score.

On to TATTAGGA, for which the binding signal is 0.109 E-score.

For CGTGGTGC, the binding signal is -0.246 E-score.

As to AGCAAATG, the binding signal is -0.25 E-score.

Take CGACGCAG: the binding signal was -0.1 E-score.

Turning to CATCGCCC, the binding signal stood at 0.0101 E-score.

ATCACGGC: the binding signal stood at 0.14 E-score.

As to AACTTCTG, the binding signal is -0.247 E-score.

Take AGGCAGAC: the binding signal was -0.0905 E-score.

Consider CTCGGCGC, for which the binding signal is -0.0825 E-score.

As to CGCACGCC, the binding signal is -0.0869 E-score.

With GACCCGCC, the binding signal stood at 0.0759 E-score.

Regarding ATATTGAC, the binding signal worked out at 0.145 E-score.

In the case of ATTCCGTG, the binding signal was 0.156 E-score.

As for ATTAAGTA, the binding signal came to 0.0942 E-score.

Take CGGAACTC: the binding signal stood at 0.0207 E-score.

GTAACGTA: the binding signal is -0.22 E-score.

Regarding ACCGCTCC, the binding signal is -0.169 E-score.

Consider CATCTTGA, for which the binding signal is -0.138 E-score.

For the sequence GGCAGCAC, the binding signal is -0.198 E-score.

As to CTAGGTTA, the binding signal is -0.0917 E-score.

For the sequence CCGATACA, the binding signal is 0.355 E-score.

In the case of GGAATAAA, the binding signal is -0.145 E-score.

As for ATGAATGA, the binding signal is -0.0359 E-score.

For the sequence ACACCAAA, the binding signal worked out at 0.263 E-score.

As to CCTACGGC, the binding signal is -0.202 E-score.

Turning to AATTCAAT, the binding signal was -0.175 E-score.

As to AATTGAGA, the binding signal turned out to be 0.131 E-score.

Take CAAGATGA: the binding signal is -0.0342 E-score.

For ATCCGATA, the binding signal came to 0.466 E-score.

As for CCTTACCA, the binding signal was -0.146 E-score.

Take CCCTGTTA: the binding signal came out at 0.00736 E-score.

GACGGGAA: the binding signal is -0.118 E-score.

Consider ACCTGCGA, for which the binding signal is -0.00164 E-score.

CAACAGGA: the binding signal is -0.043 E-score.

With GCAGCGGA, the binding signal is -0.0525 E-score.

Turning to AATTCGAC, the binding signal was -0.19 E-score.

As to ATCCCTCC, the binding signal was 0.329 E-score.

On to CTGGTACC, for which the binding signal is -0.0977 E-score.

For GGACTCAA, the binding signal was -0.0841 E-score.

As to TCGAGAGA, the binding signal is 0.131 E-score.

Take CATTGACG: the binding signal was -0.0322 E-score.

With CAACCGGG, the binding signal is -0.0253 E-score.

For AGACCTCG, the binding signal was 0.0568 E-score.

Turning to CGGTAGCA, the binding signal is -0.112 E-score.

As for GAGAACCC, the binding signal stood at 0.246 E-score.

GCTTATCA: the binding signal is 0.066 E-score.

For CAGGTGAA, the binding signal is -0.194 E-score.

For AGAGACAT, the binding signal stood at 0.0366 E-score.

As to ATGGACTG, the binding signal was -0.181 E-score.

As to GCTGATCC, the binding signal is 0.425 E-score.

Consider CAACCCTG, for which the binding signal was determined as 0.0479 E-score.

As for CCGACAAC, the binding signal was -0.13 E-score.

Consider ACCAGAGG, for which the binding signal is -0.066 E-score.

In the case of AAACGCTA, the binding signal was -0.249 E-score.

On to CTGAAATA, for which the binding signal was -0.00998 E-score.

On to AATACCCG, for which the binding signal is 0.293 E-score.

Consider GTATTTTA, for which the binding signal is 0.128 E-score.

As for GCCCAATA, the binding signal amounted to 0.114 E-score.

On to AAGGTCTC, for which the binding signal was -0.0615 E-score.

ACCTGTCA: the binding signal was -0.128 E-score.

Turning to CGTGAATA, the binding signal came to 0.0933 E-score.

Consider ACTTACAT, for which the binding signal is -0.106 E-score.

Regarding TCCTAACA, the binding signal is -0.0935 E-score.

Consider AGTGGTGG, for which the binding signal was -0.0271 E-score.

As for TCGCTCAA, the binding signal was -0.139 E-score.

On to AGGTCTAA, for which the binding signal was -0.0365 E-score.

Regarding CAGGTTAG, the binding signal is -0.176 E-score.

Consider CACAATAA, for which the binding signal amounted to 0.00671 E-score.

As for CACTGTCG, the binding signal was -0.109 E-score.

Regarding GATAATAA, the binding signal was determined as 0.0943 E-score.

For AACCGACG, the binding signal is -0.125 E-score.

In the case of CATAGAGG, the binding signal is 0.103 E-score.

As for AACAAAAA, the binding signal was -0.156 E-score.

With GGAAAAAA, the binding signal was -0.155 E-score.

Regarding ATGAGTAG, the binding signal came out at 0.0288 E-score.

Take AGCATCTG: the binding signal is -0.162 E-score.

On to CGCTGCTA, for which the binding signal is -0.22 E-score.

Take ACGACCGT: the binding signal was -0.0243 E-score.

For the sequence CCACCCCG, the binding signal worked out at 0.151 E-score.

CGACCGAC: the binding signal was -0.158 E-score.

On to AGAGGATG, for which the binding signal was 0.12 E-score.

As to CATATGCC, the binding signal stood at 0.162 E-score.

Turning to ATTGTCCC, the binding signal was -0.134 E-score.

Take ACACTAAT: the binding signal was determined as 0.122 E-score.

Turning to CGGTTACG, the binding signal was -0.0744 E-score.

In the case of AATGCCTA, the binding signal turned out to be 0.0122 E-score.

Turning to GCAGCCAA, the binding signal was found to be 0.063 E-score.

With ATTAGTTA, the binding signal is 0.00553 E-score.

For GTACGATA, the binding signal worked out at 0.338 E-score.

For the sequence CATGCGAG, the binding signal stood at 0.0285 E-score.

As for CCAGCTTC, the binding signal is -0.151 E-score.

For GTGTTGGA, the binding signal is 0.0917 E-score.

Take CGCTGCAA: the binding signal was -0.25 E-score.

As for CCTAGTAC, the binding signal was -0.118 E-score.

AAAGAGTT: the binding signal is -0.246 E-score.

For ATCAGTCA, the binding signal turned out to be 0.223 E-score.

For ACAGCCCA, the binding signal was -0.217 E-score.

On to AATTGAAG, for which the binding signal was -0.108 E-score.

On to GCCCCGAC, for which the binding signal was -0.0832 E-score.

With AATATTGC, the binding signal is 0.121 E-score.

As for GTGCATAA, the binding signal was -0.00109 E-score.

As for CATTGCAC, the binding signal is -0.0877 E-score.

Take CAAAAAGA: the binding signal is -0.118 E-score.

As to GAAAATGA, the binding signal was found to be 0.0119 E-score.

As for CGGCCGCA, the binding signal was 0.0197 E-score.

Regarding CCTAACGC, the binding signal was -0.143 E-score.

Take CAGACCCC: the binding signal was -0.047 E-score.

With AAACCAAG, the binding signal was -0.153 E-score.

Take GGGGTGCA: the binding signal worked out at 0.0953 E-score.

Take AGGTAGCG: the binding signal is -0.0699 E-score.

In the case of AACCATTG, the binding signal is -0.0642 E-score.

Turning to CAGTGCAG, the binding signal is -0.229 E-score.

In the case of TAAAGGAA, the binding signal is -0.159 E-score.

Take CTTTGAAA: the binding signal is -0.231 E-score.

Consider CTACGGGC, for which the binding signal is -0.265 E-score.

For AAAGAGGC, the binding signal was -0.259 E-score.

Take GATACCGA: the binding signal was 0.416 E-score.

For AACGGGAA, the binding signal is -0.221 E-score.

As to AACCTTAT, the binding signal is -0.116 E-score.

Consider ATCACCTA, for which the binding signal was found to be 0.232 E-score.

As for CATAACCC, the binding signal was -0.0769 E-score.

Turning to AACACCGG, the binding signal was 0.295 E-score.

Turning to GCTCGAGA, the binding signal is -0.11 E-score.

In the case of CTACCTGC, the binding signal is -0.058 E-score.

For ACCGGCGC, the binding signal is -0.0142 E-score.

For the sequence CCAGGGTA, the binding signal stood at 0.221 E-score.

Consider CTTAACCC, for which the binding signal was -0.0917 E-score.

With ATAGATGC, the binding signal amounted to 0.0234 E-score.

For ATCGTAGC, the binding signal was determined as 0.093 E-score.

Regarding AAGATTCA, the binding signal is -0.0636 E-score.

In the case of CGCAAGGC, the binding signal is -0.166 E-score.

Take GAGATTAC: the binding signal is 0.109 E-score.

For the sequence CCACTTAA, the binding signal is -0.0871 E-score.

GACCGGCC: the binding signal is -0.173 E-score.

AAAGACGG: the binding signal is -0.106 E-score.

Turning to GCCAACCC, the binding signal was -0.113 E-score.

Take AAATGGGC: the binding signal was -0.261 E-score.

With AAAGACCA, the binding signal is -0.273 E-score.

For the sequence TCCTTCGA, the binding signal was 0.0312 E-score.

Turning to CTACTATC, the binding signal was 0.273 E-score.

As to CTTTTTCA, the binding signal is -0.221 E-score.

As for AAGCCGTA, the binding signal was 0.0861 E-score.

With AGCGTCCA, the binding signal is -0.274 E-score.

Turning to CAGTGCTA, the binding signal was 0.063 E-score.

With AAACACCT, the binding signal was 0.148 E-score.

For GTGGAGAA, the binding signal is -0.127 E-score.
